# Test results reported in PMC4336329 (PLoS ONE, 2015).
# Screen size: about 310,000 compounds; about 14,000 (4.5%) showed an effect of 50% or more. Effects have a minus sign here. This is one part of the list.
# Target: human ether-à-go-go-related gene (hERG) potassium channel (human, UniProt Q12809)
# Assay: primary screen, population patch clamp on CHO cells stably expressing hERG
# 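Also: peak tail current of the secondary pulse compared with the same well before compound.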
# Sequence of human ether-à-go-go-related gene (hERG) potassium channel (Q12809 whole entry, looked up): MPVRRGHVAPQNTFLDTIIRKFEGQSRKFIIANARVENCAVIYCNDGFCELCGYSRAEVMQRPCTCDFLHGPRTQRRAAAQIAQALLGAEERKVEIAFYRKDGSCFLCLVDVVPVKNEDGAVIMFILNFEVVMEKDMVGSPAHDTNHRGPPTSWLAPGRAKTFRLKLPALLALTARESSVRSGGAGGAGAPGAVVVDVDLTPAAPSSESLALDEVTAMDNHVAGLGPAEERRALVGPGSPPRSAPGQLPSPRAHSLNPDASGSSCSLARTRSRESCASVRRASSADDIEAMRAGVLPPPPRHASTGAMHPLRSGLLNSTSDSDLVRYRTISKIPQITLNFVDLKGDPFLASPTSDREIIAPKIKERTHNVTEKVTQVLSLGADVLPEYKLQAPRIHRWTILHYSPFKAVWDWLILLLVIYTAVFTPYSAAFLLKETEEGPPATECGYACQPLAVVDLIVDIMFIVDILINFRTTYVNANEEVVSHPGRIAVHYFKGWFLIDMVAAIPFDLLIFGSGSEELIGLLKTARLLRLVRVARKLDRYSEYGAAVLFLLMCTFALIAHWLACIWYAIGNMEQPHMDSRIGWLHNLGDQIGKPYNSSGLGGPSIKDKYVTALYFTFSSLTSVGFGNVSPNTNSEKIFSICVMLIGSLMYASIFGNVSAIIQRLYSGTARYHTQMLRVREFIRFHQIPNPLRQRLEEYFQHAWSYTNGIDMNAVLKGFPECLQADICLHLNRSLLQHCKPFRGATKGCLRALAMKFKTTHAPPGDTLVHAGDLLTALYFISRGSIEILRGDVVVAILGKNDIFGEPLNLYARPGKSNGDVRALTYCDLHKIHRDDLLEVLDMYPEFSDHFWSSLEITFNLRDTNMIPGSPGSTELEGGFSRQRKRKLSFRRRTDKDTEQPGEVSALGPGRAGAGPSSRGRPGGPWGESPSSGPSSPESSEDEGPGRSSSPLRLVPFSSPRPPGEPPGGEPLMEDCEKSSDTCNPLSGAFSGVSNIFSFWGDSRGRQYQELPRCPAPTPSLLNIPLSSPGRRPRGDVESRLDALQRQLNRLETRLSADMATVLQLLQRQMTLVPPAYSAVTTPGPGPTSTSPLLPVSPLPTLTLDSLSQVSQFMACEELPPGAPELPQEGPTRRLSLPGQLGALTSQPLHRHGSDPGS
row,SMILES,"hERG current change (%, negative = inhibition) at 10uM"
1,Cc1c(C(=O)N2CCOCC2)sc2ncn(CC(=O)N3CCC(C)CC3)c(=O)c12,-7.86%
2,CCCCNCc1cc(OCC)c(OCC)cc1Br.Cl,24.1%
3,COC(=O)c1ccc(-n2c(C)cc(C(=O)COC(=O)CNS(=O)(=O)c3ccc(C)cc3)c2C)cc1,-26.7%
4,COc1ccc(C(=O)NC(=S)Nc2ccc3c(c2)Cc2ccccc2-3)cc1,17%
5,O=C(c1cccc2ccccc12)N1CCN(c2ccccc2F)CC1,-9.72%
6,O=C1OCc2cccc([N+](=O)[O-])c21,4.68%
7,O=C(CN1CCCC1)Nc1ccc([N+](=O)[O-])cc1,-22.6%
8,COc1ccc(C(=O)Nc2cccc(C(=O)N3CCCCC3)c2)cc1,6%
9,Cc1ccc(C(=O)Nc2ccc3c(c2)OCO3)cc1Cl,19.7%
10,COc1nc(NCc2cccnc2)nc(OC)n1,8.02%
11,CC(Sc1nc2ccccc2s1)C(=O)c1c(N)n(C)c(=O)n(C)c1=O (centres unmarked),-24.8%
12,COc1ccc(N2C(=O)c3ccccc3NC2c2ccc(OC)c(Cn3cc([N+](=O)[O-])cn3)c2)cc1 (centres unmarked),6.1%
13,CC(=O)NCCc1nc2ccccc2n1CCOc1ccccc1C,-2.09%
14,CCCCc1ccc(NC(=O)Nc2cc(C)nn2C)cc1,8.96%
15,COc1cc(CC(=O)Nc2cccc(C(F)(F)F)c2)cc(OC)c1OC,0.0103%
16,Cl.O=C(c1ccccc1)C(CCC(CN1CCOCC1)C(=O)c1ccccc1)CN1CCOCC1 (centres unmarked),-7.92%
17,O=C(NNC(=O)C1CCN(S(=O)(=O)c2cccc(Cl)c2)CC1)C1CC1,-5.41%
18,O=C(OCC(=O)N1CCCC1)c1ccc(NS(=O)(=O)c2cccs2)cc1O,17.1%
19,COc1ccc(-n2nc3c(c2NC(=O)C2CCCC2)CS(=O)C3)cc1 (centres unmarked),-0.0255%

row,SMILES,"hERG current change (%, negative = inhibition) at 10uM"
1,CCOP(=O)(OCC)C(NC(=O)c1cc([N+](=O)[O-])cc([N+](=O)[O-])c1)C(F)(F)F (centres unmarked),4.88%
2,CCC(C)(C)n1nnnc1C(c1ccccc1)N1CCN(C2CCCC2)CC1 (centres unmarked),-7.1%
3,COc1ccc(C2NC(=O)NC(C)=C2C(C)=O)cc1 (centres unmarked),6.39%
4,CC1CN(Cc2nc3c(c(=O)n(C)c(=O)n3C)n2CCCc2ccccc2)CC(C)O1 (centres unmarked),-8.29%
5,O=C(CSc1nc2c(sc3ccccc32)c(=O)n1CCO)NCC1CCCO1 (centres unmarked),-3.42%
6,Cc1cccc(NNC(=S)Nc2c(C)cccc2C)c1,-3.74%
7,COc1ccc(-c2csc(NC(C)=O)n2)cc1OC,5.13%
8,Cc1c(S(=O)(=O)Nc2cc(Cl)ccc2Cl)c(=O)n(C)c(=O)n1C,4.09%
9,Cn1c(SCC(=O)NCc2ccco2)nnc1-c1cccs1,3.45%
10,O=C(c1ccco1)N1CCN(C2CC(=O)N(c3ccc(C(F)(F)F)cc3)C2=O)CC1 (centres unmarked),-25.5%
11,CCCCCc1c(C)nc(Nc2nc(C)c3cc(OC)ccc3n2)[nH]c1=O,6.83%
12,Cc1c(CC(=O)N2CCC(C(=O)O)CC2)c(=O)oc2cc3c(cc12)CCC1(CCCCC1)O3,0.494%
13,Cc1ccc(C(=O)Cn2cncn2)cc1.Cl,10.1%
14,COc1ccc(Cl)cc1NC(=O)CN(C)S(=O)(=O)c1cccs1,-26.2%
15,CN(C)C(=O)N1CCN(C(=O)c2ccccc2Sc2ccccc2C#N)CC1,-2.59%
16,CCOC(=O)c1c(C)[nH]c(C)c1C(=O)CN1C(=O)NC2(CCCCCC2)C1=O,6.33%
17,CCOC(=O)CCCSc1nc(-c2ccc3c(c2)OCO3)cc(C(F)(F)F)c1C#N,6.74%
18,O=c1[nH]c(=O)n(CCC2=CCCCC2)c(O)c1/C=N/Nc1cccc2ccccc12,1.33%
19,CCc1cc(=O)oc2c(C)c(OCC(=O)NCC3CCC(C(=O)O)CC3)ccc12 (centres unmarked),-0.379%

row,SMILES,"hERG current change (%, negative = inhibition) at 10uM"
1,O=C(COC(=O)CCc1ccccc1)Nc1ccccc1OC(F)F,-2.25%
2,CCCCCCn1c(N2CCCC2)nc2c1c(=O)n(C)c(=O)n2C,-1.96%
3,O=C1Nc2ccccc2N=C(c2ccccc2)C1Br (centres unmarked),9.91%
4,S=C(NCc1ccco1)N/N=C/c1ccc(Cl)cc1,7.02%
5,CCC1(C)NC(=O)N(CC(=O)N2N=C(c3ccccc3)CC2c2ccc(OC)cc2)C1=O (centres unmarked),-8.3%
6,Cc1ccccc1-c1ccc(=O)n(CC(=O)Nc2ccc(S(=O)(=O)N(C)C)cc2)n1,14.5%
7,O=C(Nc1nccs1)c1cccnc1,1.45%
8,O=C(CN1C(=O)c2cccc3cccc(c23)C1=O)NCCN1CCOCC1,13.7%
9,COc1ccc(S(=O)(=O)N2Cc3ccccc3CC2C(=O)O)cc1OC (centres unmarked),4.9%
10,CC(=O)NC12CC3CC(C1)CC(C(=O)Nc1nc4c(C)cccc4s1)(C3)C2,-39%
11,COc1ccc(CCNC(=O)COC(=O)Cc2cccc3ccccc23)cc1,3.32%
12,Cc1csc(SC(C)C(=O)Nc2ccc(S(=O)(=O)N3CCCC3)cc2)n1 (centres unmarked),-6.61%
13,Cn1c(=O)c2c(nc(N/N=C/c3c(O)n(C4CCCCC4)c(=S)[nH]c3=O)n2C)n(C)c1=O,12.6%
14,COc1c(C)cc(C(=O)C2CCCN(C(=O)c3ccoc3)C2)cc1C (centres unmarked),-7.28%
15,O=C(NCc1ccco1)c1cc(S(=O)(=O)N2CCCC2)ccc1Cl,2.26%
16,Cc1cc(C)cc(NC(=O)c2cc(C)n(Cc3cccs3)c2C)c1,2.37%
17,NS(=O)(=O)c1ccc(NC(=O)CSc2nnc(-c3ccc(O)cc3)o2)cc1,25.1%
18,Cc1cccc2c(=O)c(C(=O)NCc3cccs3)c[nH]c12,14.7%
